Experimental data as given in the supplement of paper PMC4967469.
The IC50 comes from the fitted curve, where viability falls to half of the control; fits outside the tested doses are given as limits. For AUC the same curve is integrated over the 256-fold range of doses and scaled to a fraction: 1 means no effect, lower means more sensitive. For part of these data: A top dose marked as inferred comes from the curve model; the source does not state it.

Tests used:
Experiment in all cases: Viability of human cancer cell lines after 72 h of drug (GDSC screen)
Roscovitine = compound: CC[C@H](CO)Nc1nc(NCc2ccccc2)c2ncn(C(C)C)c2n1 [Roscovitine]; details: top dose 16 µM; top dose inferred
Method: (§1)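 Human cancer cell lines in 384-well plates, medium with 10% serum, drug for 72 h over a 256-fold dose range (nine 2-fold or five 4-fold steps up to the top dose). Adherent lines were fixed and stained with the nucleic acid dye Syto60, suspension lines read with resazurin; signal relative to control wells, capped at 0 and 100%. One two-parameter sigmoid per drug and line, fitted in a mixed model over all curves with the slope shared within a line.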

IOX2 = compound: O=C(O)CNC(=O)c1c(O)c2ccccc2n(Cc2ccccc2)c1=O [IOX2]; details: top dose 0.1 µM; top dose inferred
Method: as §1

Midostaurin = compound: CO[C@@H]1[C@H](N(C)C(=O)c2ccccc2)C[C@H]2O[C@]1(C)n1c3ccccc3c3c4c(c5c6ccccc6n2c5c31)C(=O)NC4 [Midostaurin]; details: top dose 0.512 µM; top dose inferred
Method: as §1

Bosutinib = compound: COc1cc(Nc2c(C#N)cnc3cc(OCCCN4CCN(C)CC4)c(OC)cc23)c(Cl)cc1Cl [Bosutinib]; details: top dose 2 µM
Method: as §1

Mitomycin C = compound: CO[C@@]12[C@H](COC(N)=O)C3=C(C(=O)C(C)=C(N)C3=O)N1C[C@@H]1N[C@@H]12 [Mitomycin C]; details: top dose 16 µM
Method: as §1

NVP-BHG712 = compound: Cc1ccc(C(=O)Nc2cccc(C(F)(F)F)c2)cc1Nc1nc(-c2cccnc2)nc2c1cnn2C [NVP-BHG712]; details: top dose 10.24 µM; top dose inferred
Method: as §1

Cell Line	AUC (Roscovitine)	IC50 (Roscovitine)	AUC (IOX2)	IC50 (IOX2)	AUC (Midostaurin)	IC50 (Midostaurin)	AUC (Bosutinib)	IC50 (Bosutinib)	AUC (Mitomycin C)	IC50 (Mitomycin C)	AUC (NVP-BHG712)	IC50 (NVP-BHG712)
OCI-LY-19 (B-cell lymphoma, suspension)	0.933	> 16000 nM	0.982	> 100 nM	0.805	234 nM	0.78	759 nM	0.047	< 62.5 nM	0.47	533 nM
GI-1 (glioma, adherent)	0.849	11300 nM	0.985	> 100 nM	0.824	289 nM	0.986	> 2000 nM	0.128	70.9 nM	0.914	> 10200 nM
NCI-H1666 (lung adenocarcinoma, semi-adherent)	0.986	> 16000 nM	0.985	> 100 nM	0.979	> 512 nM	0.919	> 2000 nM	0.557	1460 nM	0.976	> 10200 nM
MONO-MAC-6 (acute myeloid leukaemia, suspension)	0.905	> 16000 nM	0.981	> 100 nM	0.675	102 nM	0.784	902 nM	0.212	134 nM	0.901	> 10200 nM
L-1236 (Hodgkin lymphoma, suspension)	0.939	> 16000 nM	0.992	> 100 nM	0.988	> 512 nM	0.927	> 2000 nM	0.619	2010 nM	0.964	> 10200 nM
COR-L279 (small cell lung carcinoma, suspension)	0.88	13400 nM	0.99	> 100 nM	0.959	> 512 nM	0.991	> 2000 nM	0.071	< 62.5 nM	0.971	> 10200 nM
RKO (large intestine, adherent)	0.913	> 16000 nM	0.973	> 100 nM	0.879	460 nM	0.979	> 2000 nM	0.18	120 nM	0.754	3230 nM
NB(TU)1-10 (neuroblastoma, adherent)	0.943	> 16000 nM	0.989	> 100 nM	0.949	> 512 nM	0.985	> 2000 nM	0.316	331 nM	0.626	1350 nM
NCI-H716 (large intestine, suspension)	0.981	> 16000 nM	0.979	> 100 nM	0.936	> 512 nM	0.881	> 2000 nM	0.636	2630 nM	0.878	> 10200 nM
SK-MEL-1 (melanoma, suspension)	0.97	> 16000 nM	0.992	> 100 nM	0.986	> 512 nM	0.984	> 2000 nM	0.614	1960 nM	0.906	> 10200 nM
KGN (ovary, adherent)	0.889	> 16000 nM	0.927	> 100 nM	0.696	130 nM	0.925	> 2000 nM	0.275	197 nM	0.88	> 10200 nM
NCI-H446 (small cell lung carcinoma, semi-adherent)	0.935	> 16000 nM	0.983	> 100 nM	0.97	> 512 nM	0.986	> 2000 nM	0.755	5810 nM	0.866	> 10200 nM
WSU-DLCL2 (B-cell lymphoma, suspension)	0.992	> 16000 nM	0.307	2 nM	0.954	> 512 nM	0.955	> 2000 nM	0.178	136 nM	0.931	> 10200 nM
KARPAS-422 (B-cell lymphoma, suspension)	0.891	> 16000 nM	0.987	> 100 nM	0.91	> 512 nM	0.988	> 2000 nM	0.487	925 nM	0.968	> 10200 nM
LB373-MEL-D (melanoma, adherent)	0.977	> 16000 nM	0.977	> 100 nM	0.984	> 512 nM	0.99	> 2000 nM	0.348	382 nM	0.956	> 10200 nM
SUP-T1 (T-cell lymphoblastic leukaemia, suspension)	0.99	> 16000 nM	0.99	> 100 nM	0.892	506 nM	0.97	> 2000 nM	0.206	151 nM	0.8	4440 nM
NCI-SNU-5 (stomach, suspension)	0.964	> 16000 nM	0.979	> 100 nM	0.982	> 512 nM	0.979	> 2000 nM	0.242	178 nM	0.989	> 10200 nM
CAS-1 (glioma, adherent)	0.981	> 16000 nM	0.979	> 100 nM	0.732	190 nM	0.982	> 2000 nM	0.682	3910 nM	0.911	> 10200 nM
PF-382 (T-cell lymphoblastic leukaemia, suspension)	0.946	> 16000 nM	0.99	> 100 nM	0.89	461 nM	0.928	> 2000 nM	0.288	276 nM	0.538	800 nM
GI-ME-N (neuroblastoma, adherent)	0.884	> 16000 nM	0.969	> 100 nM	0.729	185 nM	0.9	> 2000 nM	0.524	1190 nM	0.796	6890 nM
SW684 (fibrosarcoma, adherent)	0.951	> 16000 nM	0.97	> 100 nM	0.939	> 512 nM	0.983	> 2000 nM	0.933	> 16000 nM	0.983	> 10200 nM

Cell Line	AUC (Roscovitine)	IC50 (Roscovitine)	AUC (IOX2)	IC50 (IOX2)	AUC (Midostaurin)	IC50 (Midostaurin)	AUC (Bosutinib)	IC50 (Bosutinib)	AUC (Mitomycin C)	IC50 (Mitomycin C)	AUC (NVP-BHG712)	IC50 (NVP-BHG712)
NCI-H524 (small cell lung carcinoma, suspension)	0.909	> 16000 nM	0.987	> 100 nM	0.99	> 512 nM	0.958	> 2000 nM	0.592	1740 nM	0.991	> 10200 nM
K5 (thyroid, adherent)	0.919	> 16000 nM	0.974	> 100 nM	0.83	302 nM	0.899	> 2000 nM	0.588	1730 nM	0.938	> 10200 nM
EW-1 (Ewing sarcoma, semi-adherent)	0.942	> 16000 nM	0.988	> 100 nM	0.897	> 512 nM	0.978	> 2000 nM	0.164	106 nM	0.956	> 10200 nM
MOLP-8 (myeloma, suspension)	0.767	5730 nM	0.985	> 100 nM	0.715	126 nM	0.949	> 2000 nM	0.306	293 nM	0.609	1260 nM
JM1 (B-cell lymphoma, suspension)	0.951	> 16000 nM	0.984	> 100 nM	0.886	428 nM	0.92	> 2000 nM	0.183	136 nM	0.885	8430 nM
KNS-81-FD (glioma, adherent)	0.93	> 16000 nM	0.972	> 100 nM	0.932	> 512 nM	0.956	> 2000 nM	0.573	1710 nM	0.967	> 10200 nM
KU812 (chronic myeloid leukaemia, suspension)	0.924	> 16000 nM	0.987	> 100 nM	0.934	> 512 nM	0.584	208 nM	0.203	147 nM	0.142	56.2 nM
HCC2218 (breast, suspension)	0.876	> 16000 nM	0.982	> 100 nM	0.98	> 512 nM	0.963	> 2000 nM	0.418	563 nM	0.934	> 10200 nM
NCI-H1869 (lung squamous cell carcinoma, adherent)	0.864	> 16000 nM	0.97	> 100 nM	0.96	> 512 nM	0.846	1750 nM	0.617	2190 nM	0.981	> 10200 nM
TGW (neuroblastoma, adherent)	0.915	> 16000 nM	0.984	> 100 nM	0.95	> 512 nM	0.991	> 2000 nM	0.67		0.886	8520 nM
NCI-H187 (small cell lung carcinoma, suspension)	0.934	> 16000 nM	0.987	> 100 nM	0.988	> 512 nM	0.988	> 2000 nM	0.492	948 nM	0.976	> 10200 nM
SIMA (neuroblastoma, adherent)	0.969	> 16000 nM	0.983	> 100 nM	0.942	> 512 nM	0.985	> 2000 nM	0.311	275 nM	0.812	6390 nM
MZ1-PC (pancreas, adherent)	0.977	> 16000 nM	0.977	> 100 nM	0.786	281 nM	0.981	> 2000 nM	0.383	441 nM	0.601	1300 nM
NCI-H209 (small cell lung carcinoma, suspension)	0.927	> 16000 nM	0.98	> 100 nM	0.983	> 512 nM	0.69	446 nM	0.069	< 62.5 nM	0.937	> 10200 nM
NCI-SNU-1 (stomach, suspension)	0.922	> 16000 nM	0.987	> 100 nM	0.964	> 512 nM	0.987	> 2000 nM	0.214	140 nM	0.657	1770 nM
GB-1 (glioma, adherent)	0.929	> 16000 nM	0.98	> 100 nM	0.881	> 512 nM	0.948	> 2000 nM	0.422	587 nM	0.83	8070 nM
LU-139 (small cell lung carcinoma, suspension)	0.921	> 16000 nM	0.974	> 100 nM	0.967	> 512 nM	0.918	> 2000 nM	0.516	1120 nM	0.894	> 10200 nM
A388 (skin, adherent)	0.965	> 16000 nM	0.962	> 100 nM	0.911	> 512 nM	0.891	> 2000 nM	0.276		0.955	> 10200 nM
NCI-H1876 (small cell lung carcinoma, adherent)	0.96	> 16000 nM	0.978	> 100 nM	0.987	> 512 nM	0.987	> 2000 nM	0.245	182 nM	0.879	> 10200 nM
MN-60 (B-cell leukaemia, suspension)	0.964	> 16000 nM	0.986	> 100 nM	0.931	> 512 nM	0.982	> 2000 nM	0.537		0.922	> 10200 nM
LB771-HNC (head and neck, adherent)	0.903	> 16000 nM	0.963	> 100 nM	0.952	> 512 nM	0.725	652 nM	0.454	724 nM	0.951	> 10200 nM
